# From the supplement of paper PMC8047034
# Structures can show the parent of a compound that is named as a salt. Some of the results follow. Single values are uncertain, as repeats are few or missing.
# Legend:
# OVCAR4 = assay: log2 surviving fraction (library drug vs vehicle, or drug + carboplatin vs carboplatin alone; relative to plate median); ovarian cancer lines: OVCAR4 is platinum-sensitive and Ov4Carbo platinum-resistant; higher = more cell survival; conditions: library drug concentration 10 µM, 7 days
# Ov4Carbo = assay: as above; conditions: library drug concentration 10 µM, 7 days
SMILES,log2 surviving fraction (OVCAR4; carboplatin co-treatment 0 µM),log2 surviving fraction (OVCAR4; carboplatin co-treatment 5 µM),log2 surviving fraction (Ov4Carbo; carboplatin co-treatment 0 µM),log2 surviving fraction (Ov4Carbo; carboplatin co-treatment 5 µM)
CN1[C@@H]2CC[C@H]1C[C@@H](OC(=O)c1c[nH]c3ccccc13)C2 [Tropisetron],-0.117,0.118,0.0169,-0.532
CN[C@@H]1[C@H](O)[C@H](NC)[C@H]2O[C@@]3(O)C(=O)C[C@@H](C)O[C@H]3O[C@@H]2[C@H]1O [Spectinomycin  hydrochloride],0.424,0.681,0.861,0.912
CN(C)CC/C=C1/c2ccccc2COc2ccc(CC(=O)O)cc21 [Olopatadine hydrochloride (Opatanol)],0.127,0.193,-0.429,0.000628
Cc1cccc(C)c1NC1=NCCCS1 [Xylazine HCl],0.0759,0.0257,1.05,-0.000628
C=C1c2cccc(O)c2C(=O)C2=C(O)[C@]3(O)C(=O)C(C(N)=O)=C(O)[C@@H](N(C)C)[C@@H]3[C@@H](O)[C@H]12 [Methacycline hydrochloride (Physiomycine)],-0.947,-0.238,-0.0293,-0.45
COc1c2occc2cc2ccc(=O)oc12 [Methoxsalen (Oxsoralen)],-0.37,-0.081,0.421,1.32
COC(=O)C1=C(C)NC(C)=C(C(=O)OC(C)C)C1c1cccc2nonc12 (centres undefined) [Isradipine (Dynacirc)],-8.72,-0.749,0.477,-0.252
NCC(=O)CCC(=O)O [5-Aminolevulinic acid hydrochloride],1.79,0.58,0.444,0.373
Nc1[nH]cnc2ncnc1-2 [Adenine hydrochloride],1.23,1.73,1.1,-0.0139
CC1=C(C(=O)OC(C)C)C(c2cccc([N+](=O)[O-])c2)C(C(=O)OC2CN(C(c3ccccc3)c3ccccc3)C2)=C(N)N1 (centres undefined) [Azelnidipine],0.745,0.0647,1.06,-0.515
CC1(C)S[C@@H]2[C@H](NC(=O)[C@H](N)c3ccccc3)C(=O)N2[C@H]1C(=O)O [Ampicillin sodium],0.308,-0.25,-1.15,-0.706
CCOC(=O)[C@H](CCc1ccccc1)N[C@@H](C)C(=O)N1[C@H](C(=O)O)C[C@@H]2CCC[C@@H]21 [Ramipril (Altace)],-0.551,-1.81,0.52,0.348
CN1C(=O)COc2c(C(=O)NC3CN4CCC3CC4)cc(Cl)cc21 (centres undefined),-0.355,-0.769,-0.505,0.553
C[C@@H]1CC[C@H]2[C@@H](C)C(=O)O[C@@H]3O[C@@]4(C)CC[C@@H]1[C@]32OO4 [Artemisinin],-0.391,-0.752,-0.667,1.02
Nc1nc(NC2CC2)c2ncn([C@H]3C=C[C@@H](CO)C3)c2n1 [Abacavir sulfate],-0.558,0.37,-0.607,-0.113
CCN(CC)CCCC(C)Nc1ccnc2cc(Cl)ccc12 (centres undefined) [Chloroquine Phosphate],-0.108,-0.0461,-0.713,-0.0576
COc1cc2nc(N3CCN(C(=O)C4COc5ccccc5O4)CC3)nc(N)c2cc1OC (centres undefined) [Doxazosin mesylate],0.868,0.709,-1.41,-0.735
O=C(O)c1nn(Cc2ccc(Cl)cc2Cl)c2ccccc12 [Lonidamine],0.0717,0.176,-0.695,0.0284
N[C@@H](Cc1cc(I)c(Oc2cc(I)c(O)c(I)c2)c(I)c1)C(=O)O [L-Thyroxine],-0.365,0.429,0.764,0.59
CC(C)=CC1C(C(=O)OCc2cccc(Oc3ccccc3)c2)C1(C)C (centres undefined) [Phenothrin],-0.281,0.111,0.117,0.00861
Nc1nc(N)nc(NC2CC2)n1 [Cyromazine],-0.718,-0.0759,-0.69,0.707
CC(C)(Oc1ccc(Cl)cc1)C(=O)O [Clofibric acid],0.696,0.162,0.463,0.194
C=C1CC[C@H](O)C/C1=C/C=C1\CCC[C@]2(C)[C@@H]([C@H](C)/C=C/[C@H](C)C(C)C)CC[C@@H]12 [Vitamin D2],-0.23,0.298,0.675,1.1
C#C[C@]1(O)CC[C@H]2[C@@H]3CCc4cc(OC)ccc4[C@H]3CC[C@@]21C [Mestranol],0.174,-1.27,-0.256,-0.628
CN(Cc1cc(Br)cc(Br)c1N)C1CCCCC1 [Bromhexine HCl],0.0511,-0.733,0.2,-0.498
NS(=O)(=O)c1cc2c(cc1Cl)NCNS2(=O)=O [Hydrochlorothiazide],1.07,1.09,1.58,1.26
